The other results are listed elsewhere or left out. Sequences were assembled here from the parent chain. Inactive controls read about 0.05.
B1: TEV protease; numbered along this chain (parent)
chain: MGESLFKGPRDYNPISSSICHLTNESDGHTTSLYGIGFGPFIITNKHLFRRNNGTLVVQSLHGVFKVKDTTTLQQHLVDGRDMIIIRMPKDFPPFPQKLKFREPQREERICLVTTNFQTKSMSSMVSDTSCTFPSGDGIFWKHWIQTKDGQCGSPLVSTRDGFIVGIHSASNFTNTNNYFTSVPKNFMELLTNQEAQQWVSGWRLNADSVLWGGHKVFMVKPEEPFQPVKEATQL

Variants of: B1
Test: raw area under fraction-flipped curve 0-4 h after induction (AUC4h, not background-subtracted), DNA-recorder readout of cleavage of the substrate (dimensionless); higher = more cleavage of the substrate by the protease variant
Settings: temperature: 34 °C; time window: 0-4 h after rhamnose induction
Protocol: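 In vivo DNA recorder in E. coli TOP10(DE3) ΔrhaA at 34 °C. Each TEVp single-site mutant (parent TEVp 0) is paired with a single-site variant of the 7-mer TEVs (canonical ENLYFQ|S). The substrate sits between flexible linkers in a Bxb1-sfGFP-TEVs-SsrA fusion, so cleavage stabilises Bxb1 and speeds flipping of a recombination array, read by NGS. The value is the raw area under the fraction-flipped curve over 0-4 h after rhamnose induction (AUC4h), with ≥20 reads per time point. It is not background-subtracted; inactive controls average about 0.047.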
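Also: Bxb1 expression induced with 0.2% (w/v) L-rhamnose at OD600 near 0.5, cultures sampled hourly, flipped fraction per protease–substrate barcode pair counted by paired-end Illumina sequencing.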

Variant	area with substrate ENLAFQS	area with substrate ENLCFQS	area with substrate ENLDFQS	area with substrate ENLEFQS	area with substrate ENLFFQS	area with substrate ENLHFQS	area with substrate ENLIFQS	area with substrate ENLKFQS	area with substrate ENLLFQS	area with substrate ENLNFQS	area with substrate ENLPFQS	area with substrate ENLQFQS	area with substrate ENLRFQS	area with substrate ENLSFQS	area with substrate ENLVFQS	area with substrate ENLWFQS	area with substrate ENLGFQS	area with substrate ENLMFQS	area with substrate ENLTFQS
MGESLFKGPRDYNPISSSICHLTNESDGHTTSLYGIGFGPFIITNKHLFRRNNITLVVQSLHGVFKVKDTTTLQQHLVDGRDMIIIRMPKDFPPFPQKLKFREPQREERICLVTTNFQTKSMSSMVSDTSCTFPSGDGIFWKHWIQTKDGQCGSPLVSTRDGFIVGIHSASNFTNTNNYFTSVPKNFMELLTNQEAQQWVSGWRLNADSVLWGGHKVFMVKPEEPFQPVKEATQL [G54I]	0.0512	0.0779	0.0501	0.06	0.0559	0.0542	0.0546	0.0542	0.0521	0.0454	0.0541	0.0469	0.0563	0.0626	0.0616	0.0652			
MGESLFKGPRDYNPISSSICHLTNESDGHTTSLYGIGFGPFIITNKHRFRRNNGTLVVQSLHGVFKVKDTTTLQQHLVDGRDMIIIRMPKDFPPFPQKLKFREPQREERICLVTTNFQTKSMSSMVSDTSCTFPSGDGIFWKHWIQTKDGQCGSPLVSTRDGFIVGIHSASNFTNTNNYFTSVPKNFMELLTNQEAQQWVSGWRLNADSVLWGGHKVFMVKPEEPFQPVKEATQL [L48R]	0.0687	0.0579	0.065	0.0694	0.0685	0.0586		0.0633	0.0704	0.0677	0.058	0.0532	0.0773	0.0565	0.0488	0.053	0.0642	0.0583	
MGESLFKGPRDYNPISSSICHLTNESDGHTTSLYGIGFGPFIITNKHWFRRNNGTLVVQSLHGVFKVKDTTTLQQHLVDGRDMIIIRMPKDFPPFPQKLKFREPQREERICLVTTNFQTKSMSSMVSDTSCTFPSGDGIFWKHWIQTKDGQCGSPLVSTRDGFIVGIHSASNFTNTNNYFTSVPKNFMELLTNQEAQQWVSGWRLNADSVLWGGHKVFMVKPEEPFQPVKEATQL [L48W]	0.0579	0.066	0.0674	0.0734	0.0646	0.0599	0.0818	0.0444		0.0592	0.0658	0.0549	0.06	0.0558	0.0647	0.0567	0.0733	0.0582	0.0669
MGESLFKGPRDYNPISSSICHLTNESDGHTTSLYGIGFGPFIITNKHFFRRNNGTLVVQSLHGVFKVKDTTTLQQHLVDGRDMIIIRMPKDFPPFPQKLKFREPQREERICLVTTNFQTKSMSSMVSDTSCTFPSGDGIFWKHWIQTKDGQCGSPLVSTRDGFIVGIHSASNFTNTNNYFTSVPKNFMELLTNQEAQQWVSGWRLNADSVLWGGHKVFMVKPEEPFQPVKEATQL [L48F]	0.0664	0.0726	0.0665	0.0658	0.0943	0.0776	0.0509	0.0843	0.0781	0.0514	0.0681	0.0685		0.0591	0.0752		0.0537	0.0693	
MGESLFKGPRDYNPISSSICHLTNESDGHTTSLYGIGFGPFIITNKHSFRRNNGTLVVQSLHGVFKVKDTTTLQQHLVDGRDMIIIRMPKDFPPFPQKLKFREPQREERICLVTTNFQTKSMSSMVSDTSCTFPSGDGIFWKHWIQTKDGQCGSPLVSTRDGFIVGIHSASNFTNTNNYFTSVPKNFMELLTNQEAQQWVSGWRLNADSVLWGGHKVFMVKPEEPFQPVKEATQL [L48S]	0.0595		0.0619	0.0747	0.0718	0.0626		0.0804	0.046	0.061		0.0573	0.0566	0.0641	0.069	0.0617	0.0898		
MGESLFKGPRDYNPISSSICHLTNESDGHTTSLYGIGFGPFIITNKHGFRRNNGTLVVQSLHGVFKVKDTTTLQQHLVDGRDMIIIRMPKDFPPFPQKLKFREPQREERICLVTTNFQTKSMSSMVSDTSCTFPSGDGIFWKHWIQTKDGQCGSPLVSTRDGFIVGIHSASNFTNTNNYFTSVPKNFMELLTNQEAQQWVSGWRLNADSVLWGGHKVFMVKPEEPFQPVKEATQL [L48G]	0.0504	0.06	0.0479	0.0596	0.0678	0.058	0.0973	0.0611		0.0629	0.0651	0.0902	0.0724	0.0627	0.0484	0.06			0.0696
MGESLFKGPRDYNPISSSICHLTNESDGHTTSLYGIGFGPFIITNKHIFRRNNGTLVVQSLHGVFKVKDTTTLQQHLVDGRDMIIIRMPKDFPPFPQKLKFREPQREERICLVTTNFQTKSMSSMVSDTSCTFPSGDGIFWKHWIQTKDGQCGSPLVSTRDGFIVGIHSASNFTNTNNYFTSVPKNFMELLTNQEAQQWVSGWRLNADSVLWGGHKVFMVKPEEPFQPVKEATQL [L48I]	0.0644		0.0696	0.0647	0.0641	0.058	0.0779	0.0742	0.0835	0.0653	0.0412	0.0641		0.0622				0.0637	
MGESLFKGPRDYNPISSSICHLTNESDGHTTSLYGIGFGPFIITNKHKFRRNNGTLVVQSLHGVFKVKDTTTLQQHLVDGRDMIIIRMPKDFPPFPQKLKFREPQREERICLVTTNFQTKSMSSMVSDTSCTFPSGDGIFWKHWIQTKDGQCGSPLVSTRDGFIVGIHSASNFTNTNNYFTSVPKNFMELLTNQEAQQWVSGWRLNADSVLWGGHKVFMVKPEEPFQPVKEATQL [L48K]	0.0596	0.0593	0.0594	0.0665	0.0528				0.0646	0.0558	0.0547	0.0544	0.0665	0.0575	0.0531	0.0516	0.0689		
MGESLFKGPRDYNPISSSICHLTNESDGHTTSLYGIGFGPFIITNKHQFRRNNGTLVVQSLHGVFKVKDTTTLQQHLVDGRDMIIIRMPKDFPPFPQKLKFREPQREERICLVTTNFQTKSMSSMVSDTSCTFPSGDGIFWKHWIQTKDGQCGSPLVSTRDGFIVGIHSASNFTNTNNYFTSVPKNFMELLTNQEAQQWVSGWRLNADSVLWGGHKVFMVKPEEPFQPVKEATQL [L48Q]	0.0637	0.0534	0.062		0.0722	0.0525	0.0737	0.066	0.0552	0.0623	0.0579	0.0714	0.0558	0.0519			0.0533		
MGESLFKGPRDYNPISSSICHLTNESDGHTTSLYGIGFGPFIITNKHAFRRNNGTLVVQSLHGVFKVKDTTTLQQHLVDGRDMIIIRMPKDFPPFPQKLKFREPQREERICLVTTNFQTKSMSSMVSDTSCTFPSGDGIFWKHWIQTKDGQCGSPLVSTRDGFIVGIHSASNFTNTNNYFTSVPKNFMELLTNQEAQQWVSGWRLNADSVLWGGHKVFMVKPEEPFQPVKEATQL [L48A]	0.0614	0.0725	0.0688	0.0707	0.0645	0.0627	0.0731	0.0536		0.0562	0.0611	0.0695		0.0542	0.0697	0.0624		0.0644	
MGESLFKGPRDYNPISSSICHLTNESDGHTTSLYGIGFGPFIITNKHMFRRNNGTLVVQSLHGVFKVKDTTTLQQHLVDGRDMIIIRMPKDFPPFPQKLKFREPQREERICLVTTNFQTKSMSSMVSDTSCTFPSGDGIFWKHWIQTKDGQCGSPLVSTRDGFIVGIHSASNFTNTNNYFTSVPKNFMELLTNQEAQQWVSGWRLNADSVLWGGHKVFMVKPEEPFQPVKEATQL [L48M]	0.0651	0.0562		0.103	0.0768	0.0573	0.0631	0.0591	0.0684	0.0559	0.0699	0.0636		0.0632	0.0733	0.0436		0.0587	0.0534
MGESLFKGPRDYNPISSSICHLTNESDGHTTSLYGIGFGPFIITNKHVFRRNNGTLVVQSLHGVFKVKDTTTLQQHLVDGRDMIIIRMPKDFPPFPQKLKFREPQREERICLVTTNFQTKSMSSMVSDTSCTFPSGDGIFWKHWIQTKDGQCGSPLVSTRDGFIVGIHSASNFTNTNNYFTSVPKNFMELLTNQEAQQWVSGWRLNADSVLWGGHKVFMVKPEEPFQPVKEATQL [L48V]	0.0643		0.0663	0.0601	0.0747	0.0656	0.0698	0.0644		0.0638	0.0626	0.0606	0.0627	0.0652	0.0735	0.0528	0.0643		
MGESLFKGPRDYNPISSSICHLTNESDGHTTSLYGIGFGPFIITNKHCFRRNNGTLVVQSLHGVFKVKDTTTLQQHLVDGRDMIIIRMPKDFPPFPQKLKFREPQREERICLVTTNFQTKSMSSMVSDTSCTFPSGDGIFWKHWIQTKDGQCGSPLVSTRDGFIVGIHSASNFTNTNNYFTSVPKNFMELLTNQEAQQWVSGWRLNADSVLWGGHKVFMVKPEEPFQPVKEATQL [L48C]	0.086	0.0751	0.0577	0.059	0.0658	0.0611	0.0652	0.0815	0.0515	0.0814	0.0632	0.0639		0.0814		0.0569			0.0563
MGESLFKGPRDYNPISSSICHLTNESDGHTTSLYGIGFGPFIITNKHLFRRNNGTTVVQSLHGVFKVKDTTTLQQHLVDGRDMIIIRMPKDFPPFPQKLKFREPQREERICLVTTNFQTKSMSSMVSDTSCTFPSGDGIFWKHWIQTKDGQCGSPLVSTRDGFIVGIHSASNFTNTNNYFTSVPKNFMELLTNQEAQQWVSGWRLNADSVLWGGHKVFMVKPEEPFQPVKEATQL [L56T]	0.0468				0.065	0.0516	0.066	0.0597	0.0736	0.0634	0.0591	0.0492		0.0505	0.0521				0.071
MGESLFKGPRDYNPISSSICHLTNESDGHTTSLYGIGFGPFIITNKHLFRRNNGTWVVQSLHGVFKVKDTTTLQQHLVDGRDMIIIRMPKDFPPFPQKLKFREPQREERICLVTTNFQTKSMSSMVSDTSCTFPSGDGIFWKHWIQTKDGQCGSPLVSTRDGFIVGIHSASNFTNTNNYFTSVPKNFMELLTNQEAQQWVSGWRLNADSVLWGGHKVFMVKPEEPFQPVKEATQL [L56W]	0.0624	0.0637	0.06	0.0689	0.0574	0.0564	0.0601	0.0593	0.0543	0.0613	0.0474	0.0594	0.0562	0.0643		0.0563		0.0697	
MGESLFKGPRDYNPISSSICHLTNESDGHTTSLYGIGFGPFIITNKHLFRRNNGTSVVQSLHGVFKVKDTTTLQQHLVDGRDMIIIRMPKDFPPFPQKLKFREPQREERICLVTTNFQTKSMSSMVSDTSCTFPSGDGIFWKHWIQTKDGQCGSPLVSTRDGFIVGIHSASNFTNTNNYFTSVPKNFMELLTNQEAQQWVSGWRLNADSVLWGGHKVFMVKPEEPFQPVKEATQL [L56S]	0.0489	0.0608	0.0454	0.0629	0.0436	0.0511	0.0558	0.0616	0.0487	0.0759	0.0481	0.0685	0.0526	0.0509		0.047	0.055		0.0398
MGESLFKGPRDYNPISSSICHLTNESDGHTTSLYGIGFGPFIITNKHLFRRWNGTLVVQSLHGVFKVKDTTTLQQHLVDGRDMIIIRMPKDFPPFPQKLKFREPQREERICLVTTNFQTKSMSSMVSDTSCTFPSGDGIFWKHWIQTKDGQCGSPLVSTRDGFIVGIHSASNFTNTNNYFTSVPKNFMELLTNQEAQQWVSGWRLNADSVLWGGHKVFMVKPEEPFQPVKEATQL [N52W]	0.0515		0.0582	0.0597	0.0669	0.0632	0.0577	0.0697	0.0636	0.0615	0.064		0.063		0.0653	0.0047		0.0727	
